{
  "source": "ChEMBL document CHEMBL4888484",
  "about": "“Replenishing the malaria drug discovery pipeline: Screening and hit evaluation of the MMV Hit Generation Library 1 (HGL1) against asexual blood stage Plasmodium falciparum ,using a nano luciferase reporter read-out” (2022)",
  "note": "The whole screen tested about 150,000 compounds, of which about 540 (0.36%) showed an effect of 50% or more. The list shows a part of the results.",
  "data": [
    {"test_system": "Plasmodium falciparum", "test": "Primary screen in NF54 nanoGlo assay, in single point, at 2uM, 72h; a lower Z score goes with more inhibition", "type": "functional, Erythrocyte", "settings": "timepoint 72 hour", "units": {"% Inhibition": "%"}, "values": [
      {"smiles": "CCCn1c(=O)sc2cc(NC(=O)c3ccccc3OC)ccc21", "% Inhibition": -2, "Z score": 0.3},
      {"smiles": "Cc1ccc(C(=O)NCc2ccc3c(c2)OCO3)c(=O)[nH]1", "% Inhibition": -2, "Z score": 0.29},
      {"smiles": "CS(=O)(=O)C[C@H]1CCCN(Cc2c(Cl)cncc2Cl)C1", "% Inhibition": -11, "Z score": 1.72},
      {"smiles": "O=C(c1cscn1)N1CCC(C2CC2)CC1", "% Inhibition": -2, "Z score": 0.26},
      {"smiles": "CC(=O)N1CCN(C(=O)Nc2cc(-c3ccccc3C)nn2C)CC1", "% Inhibition": 1, "Z score": -0.18},
      {"smiles": "COCCNC(=NC1CC1)NCc1ccccc1", "% Inhibition": 0, "Z score": 0.06},
      {"smiles": "Cc1ccccc1S(=O)(=O)N(c1ccc(F)cc1)C1CCN(Cc2cccc(Oc3ccccc3)c2)CC1", "% Inhibition": -4, "Z score": 0.56},
      {"smiles": "Cc1cc(F)ccc1Cc1noc([C@@H](c2cccnc2)N(C)C)n1", "% Inhibition": 0, "Z score": 0},
      {"smiles": "CCC[C@@H](CNC(=O)Cc1ccc(CO)cc1)N(C)C", "% Inhibition": -10, "Z score": 1.05},
      {"smiles": "CCOc1cccc(CNCCNc2ccccc2)c1", "% Inhibition": -2, "Z score": 0.19},
      {"smiles": "O=C(Cn1ccc(=O)c2sccc21)NCC1CCC1", "% Inhibition": -12, "Z score": 2.13},
      {"smiles": "O=C(c1ccncc1)N1CCC2(CC1)C[C@@H](Cc1cccc(F)c1)CCO2", "% Inhibition": -14, "Z score": 1.83},
      {"smiles": "COc1cccc(OC)c1C(=O)N(Cc1cccc(OS(=O)(=O)c2ccc(F)cc2)c1)C(C)C", "% Inhibition": 4, "Z score": -0.58},
      {"smiles": "N#Cc1c(F)cccc1NCc1ccc(N2CCNC(=O)C2)cc1", "% Inhibition": -17, "Z score": 1.87},
      {"smiles": "COc1ccc(-n2nc(C)c3c2NC(=O)C[C@@H]3c2cccc(OC)c2OCc2ccccc2F)cc1", "% Inhibition": -9, "Z score": 0.92},
      {"smiles": "COc1cc(NC(=O)c2oc(C)nc2C)ncn1", "% Inhibition": 21, "Z score": -2.37},
      {"smiles": "Cc1noc(C)c1CCC(=O)N(C[C@H]1CCCN1CC1CCCCC1)C(=O)CCc1c(C)noc1C", "% Inhibition": -5, "Z score": 0.99},
      {"smiles": "CC[C@H](NC(=O)c1ccccc1)C(=O)NCc1cccc(CO)n1", "% Inhibition": -1, "Z score": 0.16},
      {"smiles": "COc1ccc(C(C)CN2CCOC3CCC(OC)CC32)cc1", "note": "(stereo not drawn)", "% Inhibition": 1, "Z score": -0.12},
      {"smiles": "Cc1ccc2c(NC[C@@](C)(O)CCCO)ccnc2c1C", "% Inhibition": 8, "Z score": -1.38},
      {"smiles": "O=C(O)[C@H](Cc1ccncc1)c1ccc(Cl)cc1", "% Inhibition": -3, "Z score": 0.38},
      {"smiles": "CCn1nccc1S(=O)(=O)N[C@@H](C)c1nc(C2CC2)no1", "% Inhibition": 2, "Z score": -0.23},
      {"smiles": "CC(C)CN1CCC(N2C(=O)CN(Cc3ccc(Cl)cc3)C2=O)CC1", "% Inhibition": -12, "Z score": 2.1},
      {"smiles": "Cc1cnn(Cc2ccccc2Cl)c1NC(=O)c1csnn1", "% Inhibition": -3, "Z score": 0.39},
      {"smiles": "CCn1nc([C@@H]2CCCCN2C(=O)C(C)C)c2c1CCOC2", "% Inhibition": 2, "Z score": -0.21},
      {"smiles": "N#C[C@@H](NC(=O)c1ccc(NC(=O)c2ccccc2)cc1)c1cnn(-c2ccccc2)c1", "% Inhibition": 0, "Z score": -0.01},
      {"smiles": "CCC(c1ccc(F)cc1F)N1CCCC(C(=O)Nc2ncccc2C)C1", "note": "(stereo not drawn)", "% Inhibition": -8, "Z score": 1.03},
      {"smiles": "Cc1nc(CC(=O)N2CCC[C@H]2c2nonc2C)cs1", "% Inhibition": -9, "Z score": 1.81},
      {"smiles": "O=C(N1CCCN(c2nc3ccccc3nc2-c2ccccc2)CC1)C(Cl)(Cl)Cl", "% Inhibition": 41, "Z score": -8.32},
      {"smiles": "Cc1cc2oc(C(=O)N3CCC(c4nc5ccccc5o4)CC3)c(C)c2cc1Cl", "% Inhibition": -16, "Z score": 1.38},
      {"smiles": "Cc1cccc(OC[C@]2(CNC(=O)C3CCCC3)C[C@@H](O)[C@@H](O)C2)n1", "% Inhibition": 2, "Z score": -0.39},
      {"smiles": "O=S(=O)(c1c(Cl)cccc1Cl)N1CCC[C@@H]1CN1CCCC1", "% Inhibition": 35, "Z score": -0.75},
      {"smiles": "COc1ccc(S(=O)(=O)N2CCOC[C@H](Oc3ccccc3)C2)cc1", "% Inhibition": 31, "Z score": -3.47},
      {"smiles": "C=C[C@H]1OCC[C@@H]1NC(=O)NC(C)c1nnnn1C", "note": "(stereo partly drawn)", "% Inhibition": 7, "Z score": -1.09},
      {"smiles": "CCc1csc(NCc2cccc(N)n2)n1", "% Inhibition": -12, "Z score": 2.23},
      {"smiles": "CCN1CCCC[C@H]1C(=O)NCCCN(C)c1ccccc1", "% Inhibition": -6, "Z score": 0.85},
      {"smiles": "COc1cc(C(=O)N2CCN[C@H](c3ccc(O)cc3)C2)ncn1", "% Inhibition": -23, "Z score": 4.89},
      {"smiles": "Cn1nccc1C(=O)Nc1ccccc1CCc1nc2ccccc2[nH]1", "% Inhibition": 3, "Z score": -0.61},
      {"smiles": "O=C(COCc1ccccc1Cl)N[C@H]1CCN(C2CC2)C1", "% Inhibition": -4, "Z score": 0.54},
      {"smiles": "O=C(CC[C@H]1CCCO1)NS(=O)(=O)c1cccnc1", "% Inhibition": -6, "Z score": 0.65},
      {"smiles": "COc1ccccc1-c1c(C)nn2c(N3CCN(C(=O)c4ccco4)CC3)cc(C)nc12", "% Inhibition": 4, "Z score": -0.69},
      {"smiles": "O=C1[C@H](c2ccc(Cl)cc2)N(C2CCCCCCC2)C(=O)CN1C1CCCC1", "% Inhibition": -13, "Z score": 1.4},
      {"smiles": "CC(C)[C@H](NC1CCOCC1)C(=O)Nc1ccc(F)cn1", "% Inhibition": -1, "Z score": 0.16},
      {"smiles": "CCc1ccc(C(=O)N[C@](C)(C#N)CC)cc1", "% Inhibition": 0, "Z score": 0.02},
      {"smiles": "CC(C)Cc1cc(CNC(=O)Cn2nnnc2N)on1", "% Inhibition": 6, "Z score": -0.76},
      {"smiles": "C[C@]1(Cc2ccc(Cl)s2)CCCN1C(=O)Cn1cncn1", "% Inhibition": -3, "Z score": 0.4},
      {"smiles": "C[C@@]1(C(=O)NCc2csc(N)n2)CCCCO1", "% Inhibition": 4, "Z score": -0.61},
      {"smiles": "CCOc1ccc(CN2C(=O)c3ccccc3C2=O)cc1C(=O)OCc1nnsc1Cl", "% Inhibition": -10, "Z score": 1.43},
      {"smiles": "Cc1nnc(NC(=O)c2coc(NC(=O)c3ccco3)n2)s1", "% Inhibition": 0, "Z score": -0.05},
      {"smiles": "COc1ccc(C(=O)N(C(=O)c2ccc(OC)c(OC)c2)c2nc(-c3ccccc3O)cs2)cc1OC", "% Inhibition": -2, "Z score": 0.32},
      {"smiles": "COc1cccc(CN2CC3(CCN(c4ccccn4)CC3)CC2=O)c1", "% Inhibition": 4, "Z score": -0.55},
      {"smiles": "O=C(Cc1cccc2ccccc12)N1C[C@@H](CO)[C@H](c2ccccn2)C1", "% Inhibition": -2, "Z score": 0.28},
      {"smiles": "CCS(=O)(=O)c1ccc(-c2nnc(NC(=O)c3cn(C)nc3OC)o2)cc1", "% Inhibition": 2, "Z score": -0.37},
      {"smiles": "O=C(Cn1ncccc1=O)N1CC[C@H](S(=O)(=O)c2ccc(Cl)cc2)C1", "% Inhibition": 4, "Z score": -0.71}
    ]}
  ]
}
